Experimental data taken from US20190284272A1 (published 2019).

T1: mutant feline IL-31 15H05 protein (Feline_IL31_15H05_mutant) (feline)
T1 construct: also called feline 15H05 mutant; 15H05 IL-31 mutant
T1 chain: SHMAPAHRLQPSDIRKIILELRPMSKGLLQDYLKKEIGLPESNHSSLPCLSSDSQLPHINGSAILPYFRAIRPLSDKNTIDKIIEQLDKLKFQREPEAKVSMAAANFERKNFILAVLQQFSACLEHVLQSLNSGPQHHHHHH

T2: mutant feline IL-31 11E12 protein (Feline_IL31_11E12_mutant) (feline)
T2 construct: also called feline 11E12 mutant; 11E12 IL-31 mutant
T2 chain: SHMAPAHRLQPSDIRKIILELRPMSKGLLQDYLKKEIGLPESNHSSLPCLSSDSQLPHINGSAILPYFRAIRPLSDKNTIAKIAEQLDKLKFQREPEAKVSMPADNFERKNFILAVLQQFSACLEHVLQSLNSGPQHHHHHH


Assays:
[1] = biological target: T1, mutant feline IL-31 15H05 protein …; experiment: indirect ELISA, IL-31 mutant coated at 1 µg/ml, receptor-Fc in solution (FIG. 8)
Procedure: (§1) To analyze the ability of these receptor forms to bind wildtype and mutant IL-31 proteins, and indirect ELISA was run by coating 100 ul of each respective protein on an immulon 2HB plate (1 μg/ml) overnight in carb/bicarb buffer (sigma C3041-100CAP) at 4 C. The ELISA plates were then blocked with 5% NFDM blocking buffer in PBST for 1 hour at room temperature followed by binding of multiple concentrations of each receptor construct at room for 1 hour. Following washing with PBST, the presence of the bound receptor (Fc fusion) was identified using mouse anti-human IgG1 (Lifetech A10684, 1:500 dilution) for 1 hour at room temperature. The wells were again washed with PBST and developed with KPL sureblue 3,3′,5,5′-tetra-methylbenzidine (TMB) microwell substrate. […] These observations are in contrast to previous reports indicating the IL-31 protein initially binds to the IL-31Ra subunit and further recruits OSMR to the site. As the biological role of IL-31 is still being determined, it is of great importance to understand the dynamics of receptor binding and the potential consequences to attenuation of its role in diseases such as atopic dermatitis. For this reason, consideration was further given to these observations when characterizing antibodies the bind to epitopes capable of disrupting the ability of IL-31 to recognize IL-31Ra and OSMR.

[2] = biological target: T2, mutant feline IL-31 11E12 protein …; experiment: as above
Procedure: as §1

Row | binding result [1] | binding result [2] | Binder
1 | no binding | no binding | Feline_OSMR_hIgG1_Fc (Fc fusion, Extracellular domain of feline OSMR fused to human IgG1 Fc, made with its native signal peptide in ExpiCHO; also called feline OSMR receptor subunit; soluble feline OSMR) EPLSLAPESLEVSIDSARQCLHLKWSVHNLAYHQELKMVFQIEISRIKTSNVIWVENYSTTVKRNQVLRWSWESKLPLECAKHSVRMRGAVDDAQVPELRFWSNWTSWEEVDVQSSLGHDPLFVFPKDKLVEEGSNVTICYVSRSHQNNISCYLEGVRMHGEQLDPNVCVFHLKNVPFIRETGTNIYCKADQGDVIKGIVLFVSKVFEEPKDFSCETRDLKTLNCTWAPGSDAGLLTQLSQSYTLFESFSGKKTLCKHKSWCNWQVSPDSQEMYNFTLTAENYLRKRSVHLLFNLTHRVHPMAPFNVFVKNVSATNATMTWKVHSIGNYSTLLCQIELDGEGKVIQKQNVSVKVNGKHLMKKLEPSTEYAAQVRCANANHFWKWSEWTRRNFTTAEAA[gap - human IgG1 Fc]
2 | no binding | no binding | Feline_IL31Ra_HIgG1_Fc_X1_Fn3 (Fc fusion, Extracellular domain of feline IL-31Ra (with its expected N-terminal proximal fibronectin III domain) fused to human IgG1 Fc, native signal peptide, ExpiCHO; also called feline IL-31 Ra receptor subunit) VLPAKPENISCVFYYEENFTCTWSPEKEASYTWYKVKRTYSYGYKSDICPSDNSTRGNHTFCSFLPPTITNPDNYTIQVEAQNADGIIKSDITHWSLDAITKIEPPEIFSVKPVLGVKRMVQIKWIRPVLAPVSSTLKYTLRFKTVNSAYWMEVNFTKEDIDRDETYNLTGLQAFTEYVLALRCATKESMFWSGWSQEKMGTTEE[gap - human IgG1 Fc]
